# Test results published in PMC4336329 (PLoS ONE, 2015).
# Out of some 310,000 compounds screened, about 14,000 (4.5%) showed an effect of 50% or more. The effect is printed as a negative number. Some of the results follow.
# Target: human ether-à-go-go-related gene (hERG) potassium channel (human, UniProt Q12809)
# Assay: primary screen, population patch clamp on CHO cells stably expressing hERG
# 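Note: peak tail current of the secondary pulse compared with the same well before compound.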
# Sequence of human ether-à-go-go-related gene (hERG) potassium channel (Q12809 whole entry, looked up): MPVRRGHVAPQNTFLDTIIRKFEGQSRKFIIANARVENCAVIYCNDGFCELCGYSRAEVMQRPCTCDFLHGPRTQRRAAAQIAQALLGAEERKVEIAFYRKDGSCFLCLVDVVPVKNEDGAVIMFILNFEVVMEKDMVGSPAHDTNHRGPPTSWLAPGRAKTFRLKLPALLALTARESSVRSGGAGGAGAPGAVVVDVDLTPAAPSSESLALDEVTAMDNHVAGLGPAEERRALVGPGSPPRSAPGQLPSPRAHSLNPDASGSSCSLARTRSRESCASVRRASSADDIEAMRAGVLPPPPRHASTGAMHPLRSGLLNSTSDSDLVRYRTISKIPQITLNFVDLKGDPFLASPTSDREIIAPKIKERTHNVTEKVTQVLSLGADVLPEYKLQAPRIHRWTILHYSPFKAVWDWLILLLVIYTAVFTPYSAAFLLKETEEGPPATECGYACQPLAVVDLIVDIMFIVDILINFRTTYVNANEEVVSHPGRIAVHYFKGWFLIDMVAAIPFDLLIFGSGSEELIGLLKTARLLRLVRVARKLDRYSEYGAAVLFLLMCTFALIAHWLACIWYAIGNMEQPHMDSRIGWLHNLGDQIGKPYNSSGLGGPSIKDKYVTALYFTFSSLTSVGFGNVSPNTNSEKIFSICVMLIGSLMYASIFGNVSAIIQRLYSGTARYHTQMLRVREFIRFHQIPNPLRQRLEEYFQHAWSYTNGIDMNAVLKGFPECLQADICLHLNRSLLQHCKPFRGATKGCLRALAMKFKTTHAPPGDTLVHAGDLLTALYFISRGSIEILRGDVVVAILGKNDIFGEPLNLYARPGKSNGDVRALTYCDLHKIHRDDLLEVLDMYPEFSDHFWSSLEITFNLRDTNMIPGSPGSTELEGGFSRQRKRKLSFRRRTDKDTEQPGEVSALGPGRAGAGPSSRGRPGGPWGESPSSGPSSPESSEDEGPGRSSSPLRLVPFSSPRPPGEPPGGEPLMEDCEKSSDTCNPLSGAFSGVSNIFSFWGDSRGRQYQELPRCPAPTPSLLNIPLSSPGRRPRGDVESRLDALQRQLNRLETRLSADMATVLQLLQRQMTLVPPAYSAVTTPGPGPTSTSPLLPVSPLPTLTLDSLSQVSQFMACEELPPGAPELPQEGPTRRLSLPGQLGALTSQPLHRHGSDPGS
row,SMILES,"hERG current change (%, negative = inhibition) at 10uM [%]"
1,O=C(O)c1cccnc1Sc1ccc(Cl)cc1,23.3
2,CCOc1ccc(S(=O)(=O)N2CCC(C(=O)N3CCN(c4ccccc4F)CC3)CC2)cc1C,-19
3,Cc1ccc(NC2=C(C(=O)c3ccccc3)N(C)S(=O)(=O)c3ccccc32)cc1,5.16
4,COc1ccc(NC(=O)CC(C)CC(=O)NCc2ccccc2)c(OC)c1 (stereo not shown),-0.642
5,COc1ccc(N2C(=O)CCC(C(=O)N(C)C3CCCCC3)C2c2ccc(OC)c(OC)c2)cc1 (stereo not shown),11
6,COc1cccc(N(C(=O)c2ccco2)C(C(=O)NC2CCCC2)c2ccc(N3CCOCC3)cc2)c1 (stereo not shown),-10.4
7,Cc1ccccc1OCCC(=O)OCC(=O)NC1CCCC1,0.814
8,Cc1ccc2c(c1)N(S(=O)(=O)c1cc(-c3onc(C)c3C)ccc1C)CCO2,14.9
9,CCCOC(=O)Nc1ccccc1C(N)=O,4.61
10,COc1cccc(C(C(=O)NC2CCCCC2)N(C(=O)c2cccs2)c2ccc3c(c2)OCO3)c1 (stereo not shown),0.359
11,CC1(C)OC(=O)C(=CNC(=O)c2c(F)cccc2F)C(=O)O1,23.2
12,CCCCNS(=O)(=O)c1ccc2nc(-c3cccnc3)cc(C(=O)NCCOC)c2c1,-12.1
13,CCOc1cc(C)nc(N2CCN(C3CCCCC3)CC2)n1,-67.5
14,COc1ccc(-n2c(=S)[nH]c3cc(C(=O)Nc4ccccc4OC)ccc3c2=O)c(OC)c1,21.5
15,Cc1cc(NC(=O)CSc2nc3ccccc3[nH]2)n(-c2ccccc2)n1,6.21
16,O=C(NCc1ccccc1)N1CCCC1,10.8
17,C#CCN1C(=O)S/C(=C/c2cc(C)n(CC)c2C)C1=O,0.0533
18,C=CCNC(=O)C12CCC(C)(C(=O)[C@H]1Br)C2(C)C (stereo partly shown),-1.61
19,Cc1cc(NC(=O)NC2CC(=O)N(c3ccc4c(c3)OCCO4)C2)no1 (stereo not shown),0.346
20,Cc1ccc(CCNS(=O)(=O)c2ccc3c(c2)N(C)CCO3)cc1,6.53
21,CCCOc1ccccc1Cn1c(=O)oc2ccccc21,3.07
22,COCCSc1nnc(NC(=O)Cc2ccccc2OC)s1,-16.3
23,CC(C)CNc1nc(Oc2ccc(=O)n(C)n2)nc(N2CCOCC2)n1,7.06

row,SMILES,"hERG current change (%, negative = inhibition) at 10uM [%]"
1,CCOc1c(OC(C)=O)ccc(/C=C2\N=C(SCC)SC2=O)c1[N+](=O)[O-],18.3
2,CC(C)=CCC(C)(C)/C=N/NC(N)=O,14.4
3,O=C1Nc2ccccc2C(O)(C(=O)N2CCCCC2)N1c1ccccc1 (stereo not shown),12.6
4,Cc1ccc(-n2c(=O)cc(N3CCCCCC3)[nH]c2=O)cc1,7.38
5,O=c1nc(-c2ccccc2)c2cc(SC(F)F)ccc2[nH]1,-14.8
6,Cc1cc(C)n(C(N)=NC(=O)c2ccc([N+](=O)[O-])cc2)n1,16
7,O=C(CSc1nnc(-c2ccc(O)cc2)o1)NNC(=O)c1ccncc1,12.6
8,O=C(NCC(=O)N(CCN1CCOCC1)C(C(=O)NC1CCCC1)c1cccnc1)c1cccs1 (stereo not shown),13.1
9,COc1ccccc1C1CCN(C(=O)c2ccco2)CC1,4.95
10,CC1CCCCC1NS(=O)(=O)c1ccc(-n2cnnn2)cc1 (stereo not shown),-14.4
11,O=C(c1ccc(N2CCNCC2)cc1)c1cccnc1,7.22
12,CC(=O)N1CCN(CC(=O)c2ccc(Br)cc2)CC1.Cl,-9.46
13,Cc1cccc(NC(=O)CNC(=O)COc2ccc(-c3ccc(C#N)cc3)cc2)c1C,4.86
14,Cc1cc(=O)n2c(C(=O)Nc3ccc(C(=O)OC(C)C)cc3)c(C(=O)Nc3ccccc3)sc2n1,19.9
15,O=C1CCC([N+](=O)[O-])C(c2ccccc2F)N1 (stereo not shown),15
16,CCOc1ccc(C(C(=O)NCC2CCCO2)N(C(=O)c2snc(C(N)=O)c2N)c2ccc(F)cc2)cc1 (stereo not shown),-18.5
17,CC(OC(=O)C1CCCO1)C(=O)NC1CCCC1 (stereo not shown),2.82
18,CC(=O)c1ccc(OCc2cc(=O)n3ccsc3n2)cc1,-1.4
19,O=C(c1ccc(S(=O)(=O)N2CCCCCC2)cc1)N1CCN(c2ccccn2)CC1,-22.5
20,Cc1ccc(C(=O)C[n+]2cccc(C(N)=O)c2)cc1.[Br-],15.3
21,Cc1cccc(C(=O)NC(=S)N(C)C2CCCCC2)c1,13.6
22,CCN(Cc1ccccc1)C(=O)Cn1c(C(C)O)nc2ccccc21 (stereo not shown),-4.22
23,Cc1ccc(C(=O)NCC(=O)OC(C)C(=O)Nc2ccc(N(C)C)cc2)s1 (stereo not shown),-5.52

row,SMILES,"hERG current change (%, negative = inhibition) at 10uM [%]"
1,Cc1c(O)nc2sc3ccccc3n2c1=O,10.8
2,O=C(NC1CCCC1)c1cccc(S(=O)(=O)N2CCCC2)c1,0.679
3,Cc1ccc(CC(=O)Nc2nccs2)cc1,12.3
4,C=CCn1c(SCCC)nc(O)cc1=O,4
5,Clc1ccc(C2=NNC(=NCc3ccc4c(c3)OCO4)SC2)cc1,1.42
6,COc1ccc(CCNC(=O)CCNS(=O)(=O)c2cc(Br)cnc2N)cc1OC,7.91
7,Cc1cccc(NC(=S)NCc2cccs2)c1,6.61
8,Nc1ccc(-c2nc3ccc([N+](=O)[O-])cc3[nH]2)cc1,3.33
9,CC(Oc1ccc(F)cc1)C(=O)Nc1cc(Cl)ccc1-n1cncn1 (stereo not shown),-28.1
10,CN1CCN(c2nc3c(c(=O)[nH]c(=O)n3C)n2Cc2ccccc2F)CC1,11.9
11,CC(=O)Nc1ccc(NC(=O)CSc2ccc(-c3sc(C)nc3C)nn2)cc1,1.38
12,Cc1ccc(NC(=O)CCC(=O)NNC(=S)Nc2ccc(F)cc2)c(C)c1,8.29
13,O=C(N/N=C/c1ccc2c(c1)OCO2)c1ccc(NC(=O)c2ccccc2Cl)cc1,2.13
14,CSc1ccccc1NC(=O)c1cc(S(=O)(=O)N(C)C)ccc1N1CCCC1,-54.7
15,O=C1CSC(c2ccc(F)c(F)c2)N1c1ccccc1F (stereo not shown),10.8
16,O=C(O)C(=O)O.c1ccc(OCCCN2CCCC2)cc1,-7.18
17,CN(CC(=O)Nc1ccc(Cl)cc1)C(=O)Cn1[nH]c(=O)c2ccccc2c1=O,-20.2
18,CCOc1ccc(NCC(=O)Nc2ccc(C)cc2C)cc1,9.14
19,O=C(OCC(=O)N1CCN(c2ccccc2)CC1)c1ccc2ccccc2n1,-8.87
20,O=C(O)/C=C/C(=O)N1CCN(C(=O)/C=C/C(=O)O)CC1,6.37
21,Cc1ccc(-c2n[nH]c3c2C(c2ccccc2)N(c2ccc(C(=O)O)cc2)C3=O)cc1 (stereo not shown),-43.5
22,CCC(=O)Nc1ccc(NC(=O)C23CC4CC(CC(C4)C2)C3)cn1,7.65
23,Cc1cc(C)c(OCCCn2ccnc2)c(C)c1,5.92

row,SMILES,"hERG current change (%, negative = inhibition) at 10uM [%]"
1,CCN(CC)S(=O)(=O)c1ccc2c(c1)CC(C(=O)N1CCCC1)N2C(C)=O (stereo not shown),1.51
2,COc1ccc(N=Nc2ccc(O)c(P(=O)(c3ccccc3)c3ccccc3)c2)cc1,5.99
3,COc1ccccc1OCCCCN1CCC(C)CC1,-16
4,CCOC(=O)c1c(NC(=O)Nc2ccc(F)cc2)sc2c1CCN(C)C2,-26
5,O=C(c1ccncc1)c1nccn1-c1ccccn1,8.51
6,CCC1CCC(NC2CCCCNC2=O)CC1 (stereo not shown),2.52
7,O=C(NCCC1=CCCCC1)C1CCN(Cc2cnn(-c3ccccc3)c2-n2cccc2)CC1,-51.8
8,COC(=O)c1ccccc1NC(=S)NC(NC(=O)c1ccco1)C(Cl)(Cl)Cl (stereo not shown),-5.26
9,COc1ccccc1OCCn1c(=S)[nH]c2ccccc21,5.56
10,CN(C)N=C1c2cc(S(=O)(=O)N(C)C)ccc2-c2ccc(S(=O)(=O)N(C)C)cc21,12.7
11,O=C(CCc1nc2ccccc2[nH]1)NCc1ccc2c(c1)OCO2,-38.1
12,CC(=O)c1ccc(OCc2cc(C(=O)N3CC[C@@H]4CCCC[C@H]4C3)no2)cc1,-3.85
13,Cc1cc(C)c(N(CC(=O)NCc2ccccc2)C(=O)c2csnn2)c(C)c1,-3.69
14,COc1ccc(C(OCC2CO2)c2ccc(OC)cc2)cc1 (stereo not shown),14.6
15,CCNc1nc(OC)nc(SCC(=O)Nc2ccccc2)n1,17.2
16,COCC(C)NCc1cccc(OC)c1OC.O=C(O)C(=O)O (stereo not shown),11.8
17,COCc1cc(=O)n2c([nH]c3ccccc32)c1C#N,-7.46
18,CCC(=O)NC1=C(NC(C)c2ccccc2)C(=O)c2ccccc2C1=O (stereo not shown),5.08
19,COc1ccc(CCN2CC(C(=O)N(C)Cc3ccc4nsnc4c3)CCC2=O)cc1 (stereo not shown),-39.6
20,O=C1CCN(CCc2ccccc2)CCN1[C@H](COc1ccccc1)Cc1ccccc1,-78.6
21,CCC1CCCCN1CCCNC(=O)CCCNC(=O)Cn1cnc2sc3c(c2c1=O)CCCC3 (stereo not shown),4.46
22,O=C(CC1NCCc2ccccc21)Nc1ccc(Oc2ccccc2)cc1 (stereo not shown),-15
